In PubChem BioAssay AID1240 (Sanford-Burnham Center for Chemical Genomics, 2008):
Out of some 50,000 compounds screened, about 800 (1.6%) showed an effect of 50% or more. Some of the results follow.

Biological target: Bcl-2-like protein 10 (Homo sapiens) (UniProt Q9HD36)
Experiment: TR3 peptide-Bcl-B binding displacers, biochemical primary FP assay, phenotype converters (AID 1240);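 note: 0% = Bcl-B with tracer peptide and DMSO and 100% = tracer peptide lacking Bcl-B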
Conditions: GST-Bcl-B / FITC-TR3 peptide fluorescence polarization; stronger effect = higher value; compound at 3.75 mg/L

UniProt Q9HD36, sequence (Q9HD36 whole entry, looked up): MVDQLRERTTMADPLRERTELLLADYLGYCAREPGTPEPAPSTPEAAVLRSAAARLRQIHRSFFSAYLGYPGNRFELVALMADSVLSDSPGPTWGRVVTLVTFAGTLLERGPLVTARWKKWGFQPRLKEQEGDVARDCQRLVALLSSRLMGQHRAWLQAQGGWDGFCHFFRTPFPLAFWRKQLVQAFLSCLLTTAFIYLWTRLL

SMILES	displacement [%]
Cc1ccc(C(=O)Nc2ccc(NC(=O)c3ccco3)cc2)cc1C	-0.4
COC(=O)C1=C(C)N(c2cccc(C)c2)C(=O)/C1=C\c1ccc(C(=O)O)cc1	6.9
O=C(Nc1ccccc1C(=O)NC(Cc1c[nH]c2ccccc12)C(=O)O)c1ccco1 (centres undefined)	-8.9
O=[N+]([O-])c1ccc(O)c(-c2nc(-c3ccccc3)c(-c3cccs3)[nH]2)c1	16.1
COc1ccccc1OCCSc1nc2ccc(N)cc2s1	1.6
COc1cc(/C=C2/NC(=S)NC2=O)ccc1OCc1ccc(I)cc1	4.3
CCN1C(=O)/C(=C\c2ccc(OCc3cccc4ccccc34)cc2)SC1=S	106
CCOc1ccc(C(=O)Nc2ccc(C(C)C)cc2)cc1	7.7
O=C(Nc1c(-c2ccccc2)nc2sccn12)c1ccc(Cl)cc1	-0.4
CC(C)c1ccc(/C=N/NS(=O)(=O)c2ccccc2)cc1	-10.1
CCOC(=O)c1c(NC(=O)c2ccc(N3C(=O)CCC3=O)cc2)sc(C)c1C	5.4
CCCOC(=O)c1cccc(NC(=O)COc2ccccc2OC)c1	-2.6
CC12CN3CC(C)(CN(C1)C3c1cn(Cc3ccccc3)c3ccccc13)C2=O (centres undefined)	6.5
CCCC(C)NC(=O)c1ccc([N+](=O)[O-])cc1Cl (centres undefined)	-4.4
COC(=O)C1=C(C)N(c2ccc(C)cc2)C(=O)/C1=C\c1cccc(OC)c1O	13.7
COc1ccc(Cl)cc1NC(=O)CC(C)=O	4.5
O=C(/C=C/c1ccc(Cl)cc1Cl)Nc1ccc(C(=O)Nc2ccccc2)cc1	-6.4
COc1cccc(NC(=O)c2ccc3ccccc3c2)c1	-13.3
C=CCn1c(O)c(C=NCC2(C)CC(O)CC(C)(C)C2)c(=O)[nH]c1=S (centres undefined)	22.4
CCCCNCCCCCCOc1c(C)cccc1C	-4
C/C(=N\NC(=O)c1ccccc1Cl)c1ccc(O)cc1	-9.3
O=C(Nc1c(C(=O)N2CCOCC2)cnn1-c1ccccc1)c1cccc(F)c1	-1.5
O=C1C2=C(Nc3ccccc3SC2c2ccc3c(c2)OCO3)c2ccccc21 (centres undefined)	-16.3

SMILES	displacement [%]
C=C(C)CNC(=S)NNC(=O)c1ccc(Br)cc1	-7.3
O=C1C(=O)N(CCCn2ccnc2)C(c2ccccc2[N+](=O)[O-])/C1=C(\O)c1ccc(Cl)cc1 (centres undefined)	-3.3
CC1(C(=O)N/N=C/c2ccc3c(c2)OCO3)CC1(Br)Br (centres undefined)	-3.2
Cc1n[nH]c(C)c1Sc1ccccc1N=Cc1cc([N+](=O)[O-])ccc1O	3.6
CC1(C)NC(=O)N(CC(O)COc2cccc3ccccc23)C1=O (centres undefined)	1.6
O=C(Nc1ccccc1)Nc1nnc(/C=C/c2ccccc2)s1	16.7
CCOC(=O)c1c2c(n(C)c1CNC(C)C)C(=O)C(=O)c1ccc(Br)cc1-2	12.6
COc1ccc(C2C(C(=O)OC(C)C)=C(C)N=c3s/c(=C\c4cccs4)c(=O)n32)cc1 (centres undefined)	14.9
O=C1NC(=S)N/C1=C/c1cc([N+](=O)[O-])cc([N+](=O)[O-])c1O	6.6
Cc1c(NC(=O)Nc2ccc(Cl)cc2)c(=O)n(-c2ccccc2)n1C	8
CCCOc1cccc(C(=O)Nc2cc(OC)c(OC)cc2C(=O)O)c1	-2.5
O=C1N=c2ccc(Br)cc2=C1c1sc(=S)n(C(Cc2ccccc2)C(=O)O)c1O (centres undefined)	15.6
CC(/C=C1\SC(=S)N(C(C(=O)O)C(C)C)C1=O)=C\c1ccccc1 (centres undefined)	-7.1
COc1ccc2c(c1)-c1c(ssc1=S)C(C)(C)N2C(=O)c1ccccc1OC	14.8
CCOCCOCCN1C(=O)c2ccccc2C1=O	-11.9
Cc1ccc(C2=NC(=O)/C(=C/c3ccc4c(c3)OCO4)S2)cc1	0.5
CC(C)c1ccc(/C=C2/C(=O)NN(c3ccc(F)cc3)C2=O)cc1	-6.7
CCC(=O)Nc1ccc(Cl)c(-c2nc3ncccc3o2)c1	18.8
N#CC(C#N)=Cc1cn(CC(=O)Nc2ccccc2)c2ccccc12	-17.6
C/C(=C\COc1cc(=O)[nH]c2ccccc12)CCC1OC(C)(C)OC1(C)C (centres undefined)	-2.7
CC(C)(CN1CCOCC1)NS(=O)(=O)c1ccccc1	16.9
Cc1cc(=O)n2[nH]c(-c3ccccc3Cl)cc2n1	13.1
COc1ccc(C2CC(=O)C3=C(C2)Nc2ccccc2NC3c2ccc3c(c2)OCO3)cc1 (centres undefined)	3.5

SMILES	displacement [%]
O=C(Cc1c(O)c2ccccc2[nH]c1=O)NCc1ccncc1	43.5
COc1ccccc1N(CC(=O)Nc1ccccc1Br)S(=O)(=O)c1ccccc1	-1.7
COc1ccc(S(=O)(=O)N2CCN(c3ccc(Cl)cc3)CC2)cc1	9.5
CC(=O)NS(=O)(=O)c1ccc(NC(=O)CCCOc2ccc(Cl)cc2Cl)cc1	12.4
O=C(Nc1ccc(Cc2ccncc2)cc1)c1ccc2ccccc2c1	-3.2
COc1ccc(C2CC(O)C(C)C(c3ccc(OC)cc3)N2)cc1 (centres undefined)	7.8
O=C1C2C3c4ccccc4C(c4ccccc43)C2C(=O)N1c1ccc(Br)cn1 (centres undefined)	-1.4
CN1CCN(c2ccc([N+](=O)[O-])c(-n3nc(-c4ccc(F)cc4)c4ccccc4c3=O)c2)CC1	2.5
CCOC(=O)c1ccc(NC(=O)COc2ccccc2Cl)cc1	1.4
C/C(CC1CC2=C(CC1(C)C)C(C)(C)CCC2)=N\O (centres undefined)	8.7
c1ccc(CCSc2ncnc3nc[nH]c23)cc1	3.5
Oc1cccc(C=Nc2ccc(Cl)c(Cl)c2)c1	-7.8
O=S(=O)(NC1CCCCC1)c1ccc(Br)cc1	13.4
COc1ccc(C2Nc3ccccc3C(=O)N2Cc2ccco2)cc1COc1c(C)cccc1C (centres undefined)	-10.4
O=C(Nc1c(-c2ccccc2)nc2ccc(Cl)cn12)c1ccco1	5.7
Clc1ccc(-c2nc(-c3ccccn3)no2)cc1	-18.5
COc1ccc(-n2sc3c(c2=S)-c2ccccc2NC3(C)C)cc1OC	10.1
O=C(CCCN1C(=O)c2cccc3cccc(c23)C1=O)OCc1ccc2c(c1)OCO2	3.3
CCOC(=O)c1sc(NN=C(C#N)C#N)c(C(=O)OCC)c1C	35.5
NC(N)=NS(=O)(=O)c1ccc(NS(=O)(=O)c2ccc3ccccc3c2)cc1	4.3
CNCCOc1nc(-c2ccccc2)cc(-c2ccccc2)n1	-7.8
O=C(/C=C/c1ccc(Cl)cc1)Nc1ccc(N2CCCCC2)cc1	-0.4
C=CCn1c(SCC(=O)c2ccccc2)nc(O)cc1=O	-6
